# Measurements from PubChem BioAssay (Tox21).
# Where “and” joins values, the source holds several entries; their conditions need not be identical. Equal values may be shown once. Inconclusive results, whose numbers are uncertain, are shown with a selection of clear calls. For part of these data: Potencies of inconclusive entries are doubtful fits and often do not repeat. Calls of active or inactive are those of the source. Unless noted, calls come from the whole dose curve; as a rule, active = well fitted curve in the direction sought with a large enough effect in the repeat runs; inconclusive = weak or mixed curves; inactive = no such curve, though single readings can be large; an effect the other way counts as inactive or inconclusive.
# Columns and labels:
# [1] = molecular target: Peroxisome proliferator-activated receptor gamma (Homo sapiens) (UniProt P37231); test: qHTS assay to identify small molecule antagonists of the peroxisome proliferator-activated receptor gamma (PPARg) signaling pathway (AID 743191; calls by dose curve; note: % is set by controls: 0 for no effect and ±100 for the full control effect; nearly all actives have a fitted effect of over 30% in size); settings: HEK293H PPARg-UAS-bla, beta-lactamase ratio, antagonist, 17 h
# Sequence of UniProt P37231 (P37231 whole entry, looked up): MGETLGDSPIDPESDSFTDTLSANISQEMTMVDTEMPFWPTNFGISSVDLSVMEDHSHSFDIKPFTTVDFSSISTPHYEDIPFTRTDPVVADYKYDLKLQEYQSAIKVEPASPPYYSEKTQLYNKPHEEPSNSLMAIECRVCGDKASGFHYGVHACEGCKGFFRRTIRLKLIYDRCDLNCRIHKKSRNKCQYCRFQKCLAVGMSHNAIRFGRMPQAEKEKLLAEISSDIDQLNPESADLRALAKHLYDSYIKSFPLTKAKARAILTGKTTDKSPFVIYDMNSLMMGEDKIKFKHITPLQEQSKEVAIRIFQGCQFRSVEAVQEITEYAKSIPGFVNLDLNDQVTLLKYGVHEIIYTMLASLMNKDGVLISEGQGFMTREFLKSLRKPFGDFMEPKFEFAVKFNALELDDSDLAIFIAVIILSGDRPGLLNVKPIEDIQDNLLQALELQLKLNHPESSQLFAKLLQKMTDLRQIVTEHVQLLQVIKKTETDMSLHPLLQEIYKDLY
# Outline: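 GeneBLAzer PPARg UAS-bla HEK293H cells carrying a UAS-driven beta-lactamase reporter were plated at 3000 cells/well, preincubated 5 h at 37C, then given compound for 17 h at 37C; LiveBLAzer B/G FRET substrate was read after 1 h at room temperature.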
# [2] = qHTS assay for small molecule agonists of the antioxidant response element (ARE) signaling pathway (AID 743202; active = well fitted activation curve with a large enough effect in the signal ratio in the repeat runs, not every such curve was filed as active; inconclusive = weak or mixed curves, or effect the other way; inactive = no such curve, though single readings can be large or run the other way; the % refers to the signal ratio; note: % is set by controls: 0 for no effect and ±100 for the full control effect); settings: HepG2 ARE-bla reporter, beta-lactamase FRET, 16 h; activation: at 73.3 µM (top of the series) unless noted
# Outline: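 Following a 16 h, 37 C exposure of reporter HepG2 cells (ARE-driven beta-lactamase, 2,000 cells/well) to compounds, FRET substrate was applied for 2 h at room temperature and fluorescence intensity recorded.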
# [3] = molecular target: Vitamin D3 receptor (Homo sapiens) (UniProt P11473); test: qHTS assay to identify small molecule antagonists of the vitamin D receptor (VDR) signaling pathway (AID 743223; active = well fitted inhibition curve with a large enough effect in the signal ratio in the repeat runs, not every such curve was filed as active; inconclusive = weak or mixed curves, or effect the other way; inactive = no such curve, though single readings can be large or run the other way; the % refers to the signal ratio; note: potency is the fitted concentration of half-maximal effect; for activity change, negative = inhibition: % is set by controls: 0 for no effect and ±100 for the full control effect); settings: VDR-UAS-bla HEK293T, beta-lactamase FRET ratio, 16 h
# Sequence of UniProt P11473 (P11473 whole entry, looked up): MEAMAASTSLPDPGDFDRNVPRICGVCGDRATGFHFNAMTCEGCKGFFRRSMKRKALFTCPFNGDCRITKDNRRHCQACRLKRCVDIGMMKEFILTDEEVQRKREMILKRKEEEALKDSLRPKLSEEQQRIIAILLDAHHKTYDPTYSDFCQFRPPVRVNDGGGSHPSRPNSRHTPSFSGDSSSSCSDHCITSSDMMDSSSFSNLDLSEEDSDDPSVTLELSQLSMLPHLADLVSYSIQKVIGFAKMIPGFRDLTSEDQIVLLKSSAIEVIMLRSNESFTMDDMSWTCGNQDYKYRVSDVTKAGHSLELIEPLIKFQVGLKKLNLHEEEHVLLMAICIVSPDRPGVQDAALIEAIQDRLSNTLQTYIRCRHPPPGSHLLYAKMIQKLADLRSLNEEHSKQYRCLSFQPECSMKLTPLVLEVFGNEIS
# Outline: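 VDR-bla cells were treated with compound plus 3 nM final 1alpha,25-dihydroxyvitamin D3 for 16 h at 37C. Beta-lactamase reporter read by B/G FRET substrate fluorescence after 2 h at room temperature. qHTS format.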
# [4] = qHTS assay to identify small molecule antagonists of the vitamin D receptor (VDR) signaling pathway - cell viability counter screen (AID 743225); settings: VDR-bla HEK293T viability, CellTiter-Glo luminescence, 16 h; viability change, negative = cytotoxic: at 61 µM (top of the series) unless noted; note: potency is the fitted concentration of half-maximal effect; nearly all actives have a fitted effect of over 50% in size
# Outline: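 VDR-UAS-bla HEK 293T cells were plated and incubated 4 h at 37C, then dosed with compound plus 3 nM (final) 1-alpha,25-dihydroxyvitamin D3 for 16 h. After the 2 h beta-lactamase read, viability in the same wells was read as CellTiter-Glo luminescence after 30 min at room temperature.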
# [5] = molecular target: Peroxisome proliferator-activated receptor gamma (Homo sapiens) (UniProt P37231); test: qHTS assay to identify small molecule agonists of the peroxisome proliferator-activated receptor gamma (PPARg) signaling pathway (AID 743094; active = well fitted activation curve with a large enough effect in the signal ratio in the repeat runs, not every such curve was filed as active; inconclusive = weak or mixed curves, or effect the other way; inactive = no such curve, though single readings can be large or run the other way; the % refers to the signal ratio; note: % is set by controls: 0 for no effect and ±100 for the full control effect); settings: HEK293H PPARg-UAS-bla, beta-lactamase FRET ratio, 17 h; activation: at 57 µM (top of the series) unless noted
# Outline: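 Agonist activity was taken from a beta-lactamase reporter (FRET substrate, 1 h at room temperature) in HEK293H cells carrying a PPARg UAS-bla construct. Compounds in DMSO were incubated 17 h at 37C after a 5 h cell pre-incubation.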
# [6] = qHTS assay for small molecule activators of the heat shock response signaling pathway (AID 743210; active = well fitted activation curve with a large enough effect in the signal ratio in the repeat runs, with a control signal flat, not every such curve was filed as active; inconclusive = weak or mixed curves; the % refers to the signal ratio; note: potency is the fitted concentration of half-maximal effect; for activation: % is set by controls: 0 for no effect and ±100 for the full control effect); settings: HeLa HSE-bla reporter, beta-lactamase ratio, 5 h; activation: at 62.6 µM (top of the series)
# Outline: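 Heat shock element–beta-lactamase HeLa reporter cells; qHTS with compounds for 5 h at 37 C; detection by FRET substrate fluorescence after 2.5 h at RT.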
# [7] = qHTS assay to identify small molecule agonists of the peroxisome proliferator-activated receptor delta (PPARd) signaling pathway - cell viability counter screen (AID 743211); settings: PPARd-bla HEK293H viability, CellTiter-Glo luminescence, 17 h; activity change, negative = cytotoxicity: at 62.6 µM (top of the series); note: potency is the fitted concentration of half-maximal effect; nearly all actives have a fitted effect of over 55% in size
# Outline: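 PPARd-bla HEK293H cells (3000/well) were pre-incubated 5 h at 37 C, then exposed to compound for 17 h at 37 C. After 2 h with LiveBLAzer substrate, CellTiter-Glo was added to the same wells; luminescence read after 30 min at room temperature.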
# [8] = molecular target: Peroxisome proliferator-activated receptor delta (Homo sapiens) (UniProt Q03181); test: qHTS assay to identify small molecule agonists of the peroxisome proliferator-activated receptor delta (PPARd) signaling pathway (AID 743212; calls by dose curve; note: potency is the fitted concentration of half-maximal effect); settings: HEK293H PPARd-UAS-bla, beta-lactamase FRET ratio, 17 h; activation: at 62.6 µM (top of the series) unless noted
# Sequence of UniProt Q03181 (Q03181 whole entry, looked up): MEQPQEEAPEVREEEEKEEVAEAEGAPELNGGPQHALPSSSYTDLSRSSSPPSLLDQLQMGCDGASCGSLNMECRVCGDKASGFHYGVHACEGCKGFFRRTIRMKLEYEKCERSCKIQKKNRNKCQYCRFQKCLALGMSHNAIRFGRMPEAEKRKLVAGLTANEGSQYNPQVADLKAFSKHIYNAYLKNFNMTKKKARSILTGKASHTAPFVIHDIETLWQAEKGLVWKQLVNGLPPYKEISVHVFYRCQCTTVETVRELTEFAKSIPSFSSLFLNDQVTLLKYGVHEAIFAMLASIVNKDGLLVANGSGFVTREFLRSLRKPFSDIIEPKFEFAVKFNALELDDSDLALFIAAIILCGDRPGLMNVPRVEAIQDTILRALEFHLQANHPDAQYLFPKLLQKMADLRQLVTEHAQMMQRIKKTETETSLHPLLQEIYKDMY
# Outline: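 Beta-lactamase reporter read by fluorescence (LiveBLAzer B/G FRET, 2 h, room temperature). Test agents, in DMSO, incubated at 37 C with PPARd-bla HEK293H cells.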
# [9] = qHTS assay to identify small molecule antagonists of the peroxisome proliferator-activated receptor delta (PPARd) signaling pathway - cell viability counter screen (AID 743213); settings: PPARd-bla HEK293H viability, CellTiter-Glo luminescence, 17 h; viability change, negative = cytotoxic: at 62 µM (top of the series) unless noted; note: potency is the fitted concentration of half-maximal effect; nearly all actives have a fitted effect of over 50% in size
# Outline: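 Same-well viability: cells pre-incubated 5 h, dosed with compound plus 300 nM L165041, kept 17 h at 37 C, FRET substrate 2 h RT, then CellTiter-Glo 30 min RT and luminescence.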
# [10] = molecular target: Peroxisome proliferator-activated receptor delta (Homo sapiens) (UniProt Q03181); test: qHTS assay to identify small molecule antagonists of the peroxisome proliferator-activated receptor delta (PPARd) signaling pathway (AID 743215; active = well fitted inhibition curve with a large enough effect in the signal ratio in the repeat runs, not every such curve was filed as active; inconclusive = weak or mixed curves, or effect the other way; inactive = no such curve, though single readings can be large or run the other way; the % refers to the signal ratio;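 note: cells stimulated with agonist L165041 at 300 nM final during compound exposure; potency is the fitted concentration of half-maximal effect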); settings: HEK293H PPARd-UAS-bla, beta-lactamase FRET ratio, antagonist, 17 h; ratio activity, negative = inhibition: at 62 µM (top of the series) unless noted
# Outline: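 Agonist L165041 (300 nM final) added with compound to PPARd-bla HEK293H UAS-bla reporter cells; 17 h incubation at 37 C. Read-out: LiveBLAzer FRET substrate, 2 h at room temperature, fluorescence intensity.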
# [11] = molecular target: Vitamin D3 receptor (Homo sapiens) (UniProt P11473); test: qHTS assay to identify small molecule agonists of the vitamin D receptor (VDR) signaling pathway (AID 743222; calls by dose curve; note: potency is the fitted concentration of half-maximal effect); settings: HEK293T VDR-UAS-bla, beta-lactamase FRET ratio, 16 h; activation: at 63.5 µM (top of the series) unless noted
# Outline: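 Agonist mode, beta-lactamase reporter: fluorescence from LiveBLAzer B/G FRET substrate (2 h, room temperature) read after 16 h compound treatment at 37 C of VDR-bla cells, which were pre-incubated 4 h after seeding.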
# [12] = qHTS assay to identify small molecule agonists of the vitamin D receptor (VDR) signaling pathway - cell viability counter screen (AID 743224); settings: VDR-bla HEK293T viability, CellTiter-Glo luminescence, 16 h; activity change, negative = cytotoxicity: at 62.6 µM (top of the series) unless noted; note: potency is the fitted concentration of half-maximal effect; nearly all actives have a fitted effect of over 50% in size
# Outline: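 Counter screen run in the same wells as the VDR-bla reporter assay: CellTiter-Glo luminescence, 30 min at room temperature, after 16 h compound treatment at 37C of cells pre-plated for 4 h.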
# [13] = qHTS assay for small molecule agonists of the antioxidant response element (ARE) signaling pathway - cell viability counter screen (AID 743203; calls by dose curve; note: potency is the fitted concentration of half-maximal effect; nearly all actives have a fitted effect of over 55% in size); settings: ARE-bla HepG2 viability, CellTiter-Glo luminescence, 16 h; viability change, negative = cytotoxic: at 73.3 µM (top of the series)
# Outline: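 Viability counter screen: CellTiter-Glo luminescence, read after 30 min at room temperature, in ARE-bla HepG2 wells. Compound exposure lasted 16 h at 37C/5% CO2, following a 5 h pre-incubation of the cells after plating.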
# [14] = molecular target: Bile acid receptor (Homo sapiens) (UniProt Q96RI1); test: qHTS assay to identify small molecule antagonists of the farnesoid-X-receptor (FXR) signaling pathway (AID 743217; active = well fitted inhibition curve with a large enough effect in the signal ratio in the repeat runs, not every such curve was filed as active; inconclusive = weak or mixed curves, or effect the other way; inactive = no such curve, though single readings can be large or run the other way; the % refers to the signal ratio; note: potency is the fitted concentration of half-maximal effect); settings: HEK293T FXR-UAS-bla, beta-lactamase ratio, CDCA-stimulated, 16 h; activity change, negative = inhibition: at 62.6 µM (top of the series) unless noted
# Sequence of UniProt Q96RI1 (Q96RI1 whole entry, looked up): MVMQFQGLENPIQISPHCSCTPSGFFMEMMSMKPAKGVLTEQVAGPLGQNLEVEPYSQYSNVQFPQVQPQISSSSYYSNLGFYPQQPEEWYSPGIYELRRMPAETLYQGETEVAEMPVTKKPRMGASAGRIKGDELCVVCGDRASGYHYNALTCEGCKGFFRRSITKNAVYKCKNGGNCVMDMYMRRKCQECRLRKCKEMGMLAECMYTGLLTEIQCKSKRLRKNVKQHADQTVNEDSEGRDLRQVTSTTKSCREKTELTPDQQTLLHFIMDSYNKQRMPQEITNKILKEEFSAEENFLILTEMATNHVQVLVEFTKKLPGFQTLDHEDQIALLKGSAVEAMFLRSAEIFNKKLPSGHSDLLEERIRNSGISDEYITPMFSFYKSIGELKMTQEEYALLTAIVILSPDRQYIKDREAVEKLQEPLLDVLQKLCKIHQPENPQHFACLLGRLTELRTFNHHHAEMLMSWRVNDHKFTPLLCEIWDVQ
# Outline: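 Antagonist mode: chenodeoxycholic acid at 50 uM final stimulates a UAS-driven beta-lactamase reporter in HEK 293T FXR-bla cells during 16 h, 37C compound exposure. Read-out is FRET substrate fluorescence after 2 h at room temperature.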
# [15] = qHTS assay to identify small molecule agonists of the farnesoid-X-receptor (FXR) signaling pathway - cell viability counter screen (AID 743218); settings: FXR-bla HEK293T viability, CellTiter-Glo luminescence, 16 h; viability change, negative = cytotoxic: at 62.6 µM (top of the series) unless noted; note: potency is the fitted concentration of half-maximal effect; nearly all actives have a fitted effect of over 45% in size
# Outline: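 Viability counter screen in the same wells: CellTiter-Glo luminescence, 30 min room-temperature incubation, measured after the beta-lactamase read. Cells were GeneBLAzer FXR-UAS-bla HEK 293T, compound-treated 16 h at 37C.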
# [16] = molecular target: Bile acid receptor (Homo sapiens) (UniProt Q96RI1); test: qHTS assay to identify small molecule agonists of the farnesoid-X-receptor (FXR) signaling pathway (AID 743220; active = well fitted activation curve with a large enough effect in the signal ratio in the repeat runs, not every such curve was filed as active; inconclusive = weak or mixed curves, or effect the other way; the % refers to the signal ratio; note: potency is the fitted concentration of half-maximal effect); settings: HEK293T FXR-UAS-bla, beta-lactamase FRET ratio, 16 h; activation: at 62.6 µM (top of the series) unless noted
# Outline: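 FXR-UAS-bla HEK 293T cells carrying a UAS-driven beta-lactamase reporter were plated for 5 h at 37C/5% CO2, then exposed to DMSO-dissolved Tox21 10K compounds for 16 h at 37C. A LiveBLAzer B/G FRET substrate was loaded for 2 h at room temperature before fluorescence reading.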
# [17] = qHTS assay to identify small molecule antagonists of the farnesoid-X-receptor (FXR) signaling pathway - cell viability counter screen (AID 743221; active = well fitted cell-killing curve with a large enough effect in the repeat runs, not every such curve was filed as active; inconclusive = weak or mixed curves, or effect the other way; inactive = no such curve, though single readings can be large or run the other way; note: potency is the fitted concentration of half-maximal effect; nearly all actives have a fitted effect of over 50% in size); settings: FXR-bla HEK293T viability, CellTiter-Glo luminescence, 16 h; activity change, negative = cytotoxicity: at 62.6 µM (top of the series)
# Outline: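 GeneBLAzer FXR-UAS-bla HEK 293T cells, compound plus chenodeoxycholic acid (50 uM final), 16 h at 37 C. CellTiter-Glo added to the same wells after the beta-lactamase read; luminescence read after 30 min at room temperature as viability.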
# [18] = activity change, negative = inhibition: at 61 µM (top of the series) unless noted
# Tags give direction and shape of the fitted curve or compound fluorescence and quenching.
compound,measurement,setting,value
CCN(CC)CCOC(=O)c1ccc(N)cc1,"ratio activity, negative = inhibition",[1]; at 62.6 µM (top of the series),inactive: -3.32%
same,"ratio activity, negative = inhibition","[1]; ratio activity, negative = inhibition: at 62.6 µM (top of the series) unless noted",inconclusive: 17%
same,Potency,[2],inactive
same,"activity change, negative = inhibition",[3]; [18],inconclusive: 10.5%
same,"activity change, negative = inhibition",[3]; at 61 µM (top of the series),inactive: -6.23%
same,Potency,[4],"inconclusive: 650 nM [cytotoxic, single point]"
CCOC(=O)[C@H](CCc1ccccc1)N[C@@H](C)C(=O)N1Cc2ccccc2C[C@H]1C(=O)O,Potency,[5],inactive
same,Potency,[2],inactive
same,Potency,[6],"inactive and inconclusive: 33.5 µM [activator, single point]"
same,Potency,[7],"inconclusive: 2.37 µM [cytotoxic, full curve]"
same,Potency,[8],"inconclusive: 55.3 µM [rising, partial curve, poor fit]"
same,Potency,[9],"inconclusive: 33.5 µM [cytotoxic, single point]"
same,Potency,[10],inconclusive: 33.5 µM
same,activation,[11],inconclusive: -12.6% [at 81.1 µM]
same,Potency,[12],inconclusive: 33.5 µM [cytotoxic]
same,Potency,[4],"inconclusive: 19600 nM [cytotoxic, single point]"
CC[C@]1(O)C[C@H]2CN(CCc3c([nH]c4ccccc34)[C@@](C(=O)OC)(c3cc4c(cc3OC)N(C=O)[C@H]3[C@@](O)(C(=O)OC)[C@H](OC(C)=O)[C@]5(CC)C=CCN6CC[C@]43[C@@H]65)C2)C1,activation,[5],inconclusive: -20.4%
same,activation,[2],inconclusive: 14.1%
same,Potency,[13],"inconclusive: 0.0841 µM [rising, full curve]"
same,activation,[11],inconclusive: -24.8%
same,"activity change, negative = inhibition",[3]; [18],inconclusive: -24.1%
same,Potency,[12],"inconclusive: 0.75 µM [cytotoxic, partial curve, poor fit]"
CC(C)CCCCCCc1ccc(O)cc1,activation,[5],inconclusive: 14.6% and inconclusive: 10.1%
same,Potency,[13],"inconclusive: 69.8 µM [cytotoxic, single point]"
same,Potency,[6],inconclusive: 53.4 µM and inconclusive: 47.1 µM
same,Potency,[7],"active: 35.3 µM and inconclusive: 27.5 µM [cytotoxic, full curve]"
same,Potency,[8],"inconclusive: 0.11 µM [rising, partial curve, poor fit]"
same,Potency,[9],active: 39.6 µM and active: 43.6 µM
same,Potency,[14],"inconclusive: 22.3 µM [inhibitor, full curve] and inconclusive: 34.7 µM [inhibitor, partial curve]"
same,Potency,[15],"inconclusive: 62.7 µM [cytotoxic, single point] and inconclusive: 61.6 µM [cytotoxic, single point]"
same,Potency,[16],"inconclusive: 44.4 µM [partial curve, poor fit]"
same,activation,[16],inconclusive: 10.9%
same,Potency,[17],active: 22.3 µM and active: 49 µM
same,Potency,[11],inconclusive: 62.7 µM [single point] and inactive
same,Potency,[3]; [18],active: 22.3 µM and active: 43.6 µM
same,Potency,[4],active: 31.4 µM and active: 38.9 µM
